Measured values published in PubChem BioAssay AID1745853 (National Center for Advancing Translational Sciences (NCATS), 2022).
“And” between values parts separate entries of the source, which are not always exact repeats. Identical values can stand only once. This is one part of the list. Shown are side measurements of this screen, not its main read-out; they come without a call.

Assays:
Assay in all cases: Primary Screen for Target Class Profiling of Small Molecule Inhibitors of Methyltransferases
[1] = target: Glycine N-methyltransferase (Homo sapiens) (UniProt Q14749); details: purified enzyme, MTase-Glo SAH luminescence; measured here: GNMT inhibition; at 40 µM; stronger effect = lower value
Method in brief: (§1)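 Each enzyme was reacted with SAM and its substrate, with compounds tested once at 40 uM; SAH formed was read by MTase-Glo luminescence.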

[2] = target: Guanidinoacetate N-methyltransferase (Homo sapiens) (UniProt Q14353); details: purified enzyme, MTase-Glo SAH luminescence; measured here: GAMT inhibition; at 40 µM; stronger effect = lower value
Method in brief: as §1

[3] = target: Histamine N-methyltransferase (Homo sapiens) (UniProt P50135); details: purified enzyme, MTase-Glo SAH luminescence; measured here: HNMT inhibition; at 40 µM; stronger effect = lower value
Method in brief: as §1

[4] = target: Nicotinamide N-methyltransferase (Homo sapiens) (UniProt P40261); details: purified enzyme, MTase-Glo SAH luminescence; measured here: NNMT inhibition; at 40 µM; stronger effect = lower value
Method in brief: as §1

[5] = target: Phenylethanolamine N-methyltransferase (Homo sapiens) (UniProt P11086); details: purified enzyme, MTase-Glo SAH luminescence; measured here: PNMT inhibition; at 40 µM; stronger effect = lower value
Method in brief: as §1
% is scaled to controls: 0 for no effect and ±100 for the full control effect.

| Structure (SMILES) | activity change, negative = inhibition [1] | activity change, negative = inhibition [2] | activity change, negative = inhibition [3] | activity change, negative = inhibition [4] | activity change, negative = inhibition [5] |
| --- | --- | --- | --- | --- | --- |
| O=C(Nc1ccccc1Cl)c1cnc2ccc(C3CCNCC3)cn12 | -5.21% | 1.45% | -17.8% | -13% | -3.98% |
| CC(C)c1c(C(=O)Nc2ccccc2)c(-c2ccccc2)c(-c2ccc(F)cc2)n1CC[C@@H](O)C[C@@H](O)CC(=O)O | -10.7% and 0.063% | 2.63% and -2.6% | -2.1% and 12% | -6.84% and -8.59% | 3.35% and 4.09% |
| CC(=O)O[C@@H]1[C@@H](O)[C@H](O[C@H]2CC[C@]34C[C@]35CC[C@]3(C)[C@@H]([C@@]6(C)CC[C@@H](C(C)(C)O)O6)[C@@H](O)C[C@@]3(C)[C@@H]5C[C@H](O[C@@H]3O[C@H](CO)[C@@H](O)[C@H](O)[C@H]3O)[C@H]4C2(C)C)OC[C@H]1O | -0.471% | 13.9% | 4.06% | 8.69% | 6.83% |
| Cc1ncc(-c2nc3cc(S(=O)(=O)NC(C)C)ccc3n2C(C)C)cn1 | -4.38% | -6.35% | -1.97% | -12% | -5.82% |
| CNS(=O)(=O)c1ccccc1Nc1nc(Nc2ccc(N3CCN(C)CC3)cc2OC)ncc1Cl | -17.7% | 14.8% | -37.9% | -14.8% | -5.61% |
| CN(C(=O)Cn1nc2n(C)c(=O)c3ccc(C(=O)NC4CCCCC4)cc3n2c1=O)c1ccccc1 | -5.22% | 3.62% | 1.81% | -0.983% | 0.689% |
| CC(CCc1ccccc1)NC(=O)c1cc2n(n1)CC(C)(C(=O)NC1CCCC1)N(C)C2=O (stereo not given) | 5.8% | 0% | 1.41% | 3.91% | -0.258% |
| Cc1ccc(C)c(NC(=O)Cn2c(=O)oc3cc(S(=O)(=O)N4CC(C)CC(C)C4)ccc32)c1 (stereo not given) | -5.65% | 5.9% | 5.31% | 8.92% | -0.171% |
| CC(=O)/C=C/C1(O)C(C)(C)CC(O)CC1(C)O (stereo not given) | 4.47% | 7.07% | -3.31% | -6.82% | 4.91% |
| Cc1ccccc1CN1C(=O)c2nc3ccccc3n2CC1(C)C(=O)NC1CCCCC1C (stereo not given) | -1.06% | 0.219% | 5.81% | 3.71% | -8.02% |
| Cc1cc(C)n(-c2cccc(CN3CCCC(O)(CN(C)C)C3)c2)n1 (stereo not given) | -7.08% | -12.3% | -7.23% | -18.8% | -17.1% |
| CC1(c2ccccc2)N(Cc2cccnc2)C(=O)OC12CCN(C(=O)Cc1ccc(Cl)cc1)CC2 (stereo not given) | -6.5% | -4.02% | -2.39% | -6.35% | -6.24% |
| COc1cccc(CNc2nc3c(S(=O)(=O)c4ccc(Br)cc4)nnn3c3ccccc23)c1 | 6.22% | 2.2% | 3.47% | 4.28% | -0.84% |
| CS(=O)(=O)N1CCOc2ccc(CCC(=O)NCC3CCCO3)cc2C1 (stereo not given) | -1.78% | -11.9% | -2.04% | -5.59% | -3.1% |
| CCOc1cc(CNC2CCCC2)cc(Cl)c1OCc1ccc(Cl)cc1 | -6.75% | -1.48% | -11.7% | -19.6% | -2.5% |
| CCCn1c(=O)c2ccc(C(=O)NCC(C)C)cc2n2c(SCC(=O)Nc3ccc(C)c(C)c3)nnc12 | 7.36% | 0.171% | 7.47% | 0.461% | 6.48% |
| COc1ccc(CNC(=O)C2(C)Cn3cnc(C(=O)NCCc4ccccc4)c3C(=O)N2C2CC2)cc1 (stereo not given) | 0.915% | 1.02% | 9.06% | 0.895% | 8.69% |
| Cc1ccccc1N1C(=O)c2cc3sccc3n2CC1(C)C(=O)NC1CCCC(C)C1C (stereo not given) | 0.684% | 3.63% | 4.02% | -4.65% | 1.5% |
| CSc1ccc(CN2C(=O)c3ccc(-c4ccco4)n3CC2(C)C(=O)NC2CCCCCC2)cc1 (stereo not given) | -2.94% | 0.21% | -0.3% | -1.16% | 2.38% |
| CC(C)c1ccc(NC(=O)c2cc3n(n2)CC(C)(C(=O)NC2CCCCCC2)N(C)C3=O)cc1 (stereo not given) | -1.75% | 2.26% | -0.336% | -0.394% | 1.16% |
| CC(NC(=O)CCc1nnc2n(CCc3ccccc3)c(=O)c3ccccc3n12)c1ccccc1 (stereo not given) | -8.77% | 3.81% | -0.291% | -0.865% | -4.03% |
| CCc1ccc(NS(=O)(=O)c2cc3[nH]c(=O)[nH]c3cc2C)cc1 | -0.913% | 0.941% | 2.07% | -11.2% | -22.3% |
| Cc1ccc(CNC(=O)C2(C)Cn3nc(C(=O)NCc4ccc(F)cc4)cc3C(=O)N2C)cc1 (stereo not given) | 7.2% | 1.17% | 5.02% | 11.6% | 7.89% |
| CC1(C(=O)NC2CCCCCC2)Cn2c(cc3occc32)C(=O)N1Cc1ccc(Cl)cc1 (stereo not given) | -9.06% | 2.63% | -2.18% | -7.01% | -2.52% |
| COc1ccc(NC(=O)CSc2nnc3[nH]c(=O)c(C(C)(C)C)nn23)cc1OC | -3.44% | 0.336% | -1.06% | -6.63% | -6.24% |
| COc1ccc(-c2cc(=O)c3c(O)c(OC)c(OC)cc3o2)cc1O | -34.2% | -14.9% | -32% | -22% | -22.8% |
| C=CC(N)CCC(=O)O (stereo not given) | -5.36% | 2.99% | 0.36% | -2.72% | 8.9% |
| CC(C)CCNC(=O)C1(C)Cn2nc(C(=O)NCCN3CCCC3)cc2C(=O)N1C (stereo not given) | 4.32% | 0% | 5.88% | 6.35% | 3.4% |
